Measurements reported in PMC4336329 (PLoS ONE, 2015).
About 2,200 (0.71%) of roughly 310,000 compounds showed an effect of 50% or more. The effect is printed as a negative number. Some of the results follow.

Molecular target: human ether-à-go-go-related gene (hERG) potassium channel (human, UniProt Q12809)
Assay: primary screen, population patch clamp on CHO cells stably expressing hERG

Sequence of human ether-à-go-go-related gene (hERG) potassium channel (Q12809 whole entry, looked up): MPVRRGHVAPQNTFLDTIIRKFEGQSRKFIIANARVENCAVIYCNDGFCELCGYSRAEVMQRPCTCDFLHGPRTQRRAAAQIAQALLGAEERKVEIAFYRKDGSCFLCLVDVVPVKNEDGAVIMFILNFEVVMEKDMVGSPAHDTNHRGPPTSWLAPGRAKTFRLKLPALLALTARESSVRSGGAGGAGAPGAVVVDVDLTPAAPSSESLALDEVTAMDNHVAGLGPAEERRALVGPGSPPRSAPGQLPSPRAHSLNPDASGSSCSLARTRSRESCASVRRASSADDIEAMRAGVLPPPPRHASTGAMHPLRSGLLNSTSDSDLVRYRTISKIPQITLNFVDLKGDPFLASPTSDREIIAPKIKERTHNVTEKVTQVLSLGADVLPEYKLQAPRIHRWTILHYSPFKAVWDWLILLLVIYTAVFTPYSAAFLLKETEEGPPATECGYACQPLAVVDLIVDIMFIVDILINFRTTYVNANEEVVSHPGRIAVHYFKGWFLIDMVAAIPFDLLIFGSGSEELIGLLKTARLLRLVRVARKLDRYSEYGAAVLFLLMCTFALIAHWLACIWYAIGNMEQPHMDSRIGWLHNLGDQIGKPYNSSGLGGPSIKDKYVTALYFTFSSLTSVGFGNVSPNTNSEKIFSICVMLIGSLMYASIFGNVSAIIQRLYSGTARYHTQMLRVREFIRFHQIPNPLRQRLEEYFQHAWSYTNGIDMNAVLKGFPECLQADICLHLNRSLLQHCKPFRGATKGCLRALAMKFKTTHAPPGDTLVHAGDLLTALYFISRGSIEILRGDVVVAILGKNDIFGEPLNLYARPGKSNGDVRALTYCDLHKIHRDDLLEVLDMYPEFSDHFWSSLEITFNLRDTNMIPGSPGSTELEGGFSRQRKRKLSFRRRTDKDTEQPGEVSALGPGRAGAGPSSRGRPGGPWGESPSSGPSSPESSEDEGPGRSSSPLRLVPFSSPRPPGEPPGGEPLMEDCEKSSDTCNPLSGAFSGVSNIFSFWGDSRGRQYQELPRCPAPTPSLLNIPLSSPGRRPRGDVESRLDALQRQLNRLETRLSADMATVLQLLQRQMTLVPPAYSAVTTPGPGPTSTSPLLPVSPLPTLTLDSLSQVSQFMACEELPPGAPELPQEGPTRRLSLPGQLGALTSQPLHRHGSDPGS

| Compound | hERG current change (%, negative = inhibition) at 1uM |
| --- | --- |
| CC(C)c1ccc(N(CC(=O)NCc2ccc(F)cc2)C(=O)c2snc(C(N)=O)c2N)cc1 | 5.83% |
| COc1ccc(CNC(=O)COc2ccc(S(=O)(=O)NC(C)C)cc2)cc1 | 13.5% |
| CCC(C(=O)NC1CCCC1)N(C(=O)Cn1nnc(-c2ccc(C)o2)n1)c1cccc(O)c1 (centres unmarked) | 12.7% |
| COc1ccc(/C(N)=N/OC(=O)CC2CCCCC2)cc1OC | 15.7% |
| O=C1c2ccccc2NC(c2ccc(Br)o2)N1O (centres unmarked) | 7.93% |
| Cc1cc(C)cc(C(=O)N2CC(C)SC2=Nc2cccc(S(=O)(=O)N(C)C)c2)c1 (centres unmarked) | -11.8% |
| CCC(=O)Nc1ccc(C(=O)NNC(=O)C(c2ccccc2)c2ccccc2)cc1 | 9.4% |
| O=S(=O)(NCC(c1ccc2c(c1)OCO2)N1CCOCC1)c1ccc(F)cc1 (centres unmarked) | 8.44% |
| COc1cc(NC(=S)Nc2cccnc2)cc(OC)c1OC | 14.1% |
| COc1ccc(C(=O)NNC(=O)c2ccc(S(=O)(=O)N3CC(C)OC(C)C3)cc2)cc1 (centres unmarked) | 10.9% |
| COc1ccc2c(c1)c(CC(=O)OCC(=O)N(C)C)c(C)n2C(=O)c1ccc(Cl)cc1 | 3.65% |
| CC(C)c1ccc(/C=C/C(=O)N2CCOCC2)cc1 | 8.02% |
| Cc1ccc(C2CC(c3ccccc3Cl)n3nc(N)nc3N2)cc1 (centres unmarked) | 6.96% |
| COc1ccc(CCN=CC2=C(O)CC(C)(C)CC2=O)cc1 | 13% |
| Nc1nc(SCC(=O)Nc2ccc(Cl)c(S(=O)(=O)N3CCOCC3)c2)n[nH]1 | 10.2% |
| O=C1c2ccccc2NC(c2ccc3c(c2)OCO3)N1O (centres unmarked) | 9.49% |
| O=[N+]([O-])c1ccc(CN2CCN(Cc3c[nH]c4ccccc34)CC2)cc1 | -73.7% |
| Cc1[nH]n(-c2ccccc2)c(=O)c1CCO | 9.44% |
| O=C(CSc1nnc(-c2ccncc2)n1-c1ccc(F)cc1)NC(=O)NCc1ccco1 | -10% |
| COc1ccccc1CCC(=O)Nc1ccc2c(c1)CN(CCCn1cccn1)CC2 | 10.1% |
| Cc1ccc(OCCSc2nnc(-c3cccs3)n2C)cc1 | -10.8% |
| COC(=O)CSc1nnc(CNC(=O)c2ccc(S(=O)(=O)N3CCOCC3)cc2)n1C | 11.5% |

| Compound | hERG current change (%, negative = inhibition) at 1uM |
| --- | --- |
| COc1ccc(Oc2nc3c(c(=O)n(C)c(=O)n3C)n2Cc2cccc(OC)c2)cc1 | 10.1% |
| Cc1cccc2c1Sc1ccccc1CC2=O | 4.66% |
| COc1ccc(CN2CCN(C(=O)Cc3ccccc3)CC2)c(OC)c1 | -6.17% |
| Cc1cc(N2CCCC2)nc(SCC(=O)c2ccccc2)n1 | 10.8% |
| COc1ccc(/C=C/C(=O)c2ccc(O)cc2)cc1CN1CCOCC1 | -0.668% |
| Brc1ccc(-c2csc(NC3=NCCCCC3)n2)cc1 | 2.39% |
| CCN(CC(=O)NCc1cccs1)S(=O)(=O)c1ccccc1Cl | 9.29% |
| Cc1nc(-c2ccccn2)sc1C(=O)Nc1ccc(Cl)c(Cl)c1 | -9.41% |
| Cc1cc(C)c2cc(C#N)c(SCC(=O)NCc3ccco3)nc2c1 | 8.51% |
| COc1ccc(OC)c(C2CC(=O)N3CN(c4ccccc4)CSC3=C2C#N)c1 (centres unmarked) | 11.2% |
| COc1ccc(CNCc2cc(Cl)ccc2O)cc1.Cl | 1.1% |
| COc1ccc(CCN=C(N)NS(=O)(=O)c2ccc(C)cc2)cc1OC | 1.59% |
| O=C(CN1C(=O)NC2(CCCCCC2)C1=O)NCc1ccco1 | 12.2% |
| COc1cc(CNCCc2c[nH]c3ccccc23)cc(OC)c1.O=C(O)C(=O)O | 5.07% |
| COc1cc2cc(CCOC(=O)N3CCCCC3)oc(=O)c2cc1OC | 8.94% |
| COc1cccc(C(=O)N2CCN(Cc3cc(Br)ccc3OC)CC2)c1.O=C(O)C(=O)O | -3.91% |
| COCCCNC(=O)CCCOc1ccccc1 | -0.627% |
| Cc1ccc(N2CC(C(=O)N3CCC(C(=O)Nc4nnc(C(C)C)s4)CC3)CC2=O)cc1 (centres unmarked) | 12.4% |
| O=C(COc1ccccc1[N+](=O)[O-])Nc1ccc(CN2CCOCC2)cc1 | -1.3% |
| COc1ccc(NC(=O)c2c(OC)cccc2OC)c(OC)c1 | 10.4% |
| CCN1CC2=C(OC(N)=C(C#N)C2c2cccs2)/C(=C\c2cccs2)C1 (centres unmarked) | 10.4% |
| Cc1ccc(S(=O)(=O)NCCCn2ccnc2)cc1 | 10.5% |
